Test results from the supplement of paper PMC4967469.
pIC50: −log10 of the molar value. The IC50 comes from the fitted curve, where viability falls to half of the control; where the fit passes the top or lowest dose, that dose stands as a limit. AUC sums up the same curve from the lowest dose to the 256-fold higher top dose; the more sensitive the line, the further below 1. For part of these data: A top dose marked as inferred was calculated from the reported fits. For part of these data: Drugs with an entry number were screened twice under separate entries, and the two screens often disagree.

Experiments:
Assay in all cases: Viability of human cancer cell lines after 72 h of drug (GDSC screen)
[1] = compound: CN(C)C/C=C/C(=O)Nc1cc2c(Nc3ccc(F)c(Cl)c3)ncnc2cc1O[C@H]1CCOC1 [Afatinib]
Procedure: (§1)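 Human cancer cell lines in 384-well plates, medium with 10% serum, drug for 72 h over a 256-fold dose range (nine 2-fold or five 4-fold steps up to the top dose). Adherent lines were fixed and stained with the nucleic acid dye Syto60, suspension lines read with resazurin; signal relative to control wells, capped at 0 and 100%. One two-parameter sigmoid per drug and line, fitted in a mixed model over all curves with the slope shared within a line.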

[2] = compound: CC1(C)CC(=O)c2c(C(F)(F)F)nn(-c3ccc(C(N)=O)c(N[C@H]4CC[C@H](O)CC4)c3)c2C1 [SNX-2112]; details: top dose 2.56 µM
Procedure: as §1

[3] = compound: O=C(NC1CC1)c1cccc(-c2ccc3c(NC(=O)C4CC4)n[nH]c3c2)c1 [XMD13-2]; details: top dose 10.24 µM; top dose inferred
Procedure: as §1

[4] = compound: CC[C@]1(O)C[C@@H]2CN(CCc3c([nH]c4ccccc34)[C@@](C(=O)OC)(c3cc4c(cc3OC)N(C)[C@H]3[C@@](O)(C(=O)OC)[C@H](OC(C)=O)[C@]5(CC)C=CCN6CC[C@]43[C@@H]65)C2)C1 [Vinblastine]; details: top dose 0.1 µM; top dose inferred
Procedure: as §1

[5] = compound: CN(c1ncccc1CNc1nc(Nc2ccc3c(c2)CC(=O)N3)ncc1C(F)(F)F)S(C)(=O)=O [PF-562271]; details: top dose 2.56 µM; top dose inferred
Procedure: as §1

[6] = top dose 0.5 µM, screen: GDSC drug entry 1032
[7] = top dose 10 µM, screen: GDSC drug entry 1377, top dose inferred

Q: For AM-38 (glioma, semi-adherent), which AUC [1, 6] is on record?
A: 0.988

Q: And the pIC50 [1, 6]?
A: < 6.30

Q: What about the AUC [1, 7] of the same cell line?
A: 0.987

Q: What about the pIC50 [1, 7] of the same cell line?
A: < 5.00

Q: And the AUC [2]?
A: 0.398

Q: And the pIC50 [2]?
A: 7.08

Q: What about the AUC [3] of the same cell line?
A: 0.944

Q: What about the pIC50 [3] of the same cell line?
A: < 4.99

Q: And the AUC [4]?
A: 0.73

Q: And the pIC50 [4]?
A: 7.54

Q: And the AUC [5]?
A: 0.944

Q: What about the pIC50 [5] of the same cell line?
A: < 5.59

Q: With “AMO-1 (haematopoietic neoplasm, suspension)” as the cell line, how does the AUC [1, 6] read?
A: 0.991

Q: What about the pIC50 [1, 6] of the same cell line?
A: < 6.30

Q: What about the AUC [1, 7] of the same cell line?
A: 0.973

Q: What about the pIC50 [1, 7] of the same cell line?
A: < 5.00

Q: What about the AUC [2] of the same cell line?
A: 0.184

Q: And the pIC50 [2]?
A: 7.66

Q: What about the AUC [3] of the same cell line?
A: 0.901

Q: What about the pIC50 [3] of the same cell line?
A: 5.00

Q: And the AUC [4]?
A: 0.367

Q: And the pIC50 [4]?
A: 8.55

Q: And the AUC [5]?
A: 0.977

Q: What about the pIC50 [5] of the same cell line?
A: < 5.59

Q: AN3-CA (endometrium, adherent) was tested. Which AUC [1, 6] did it give?
A: 0.971

Q: And the pIC50 [1, 6]?
A: < 6.30

Q: What about the AUC [1, 7] of the same cell line?
A: 0.971

Q: And the pIC50 [1, 7]?
A: < 5.00

Q: And the AUC [2]?
A: 0.865

Q: What about the pIC50 [2] of the same cell line?
A: < 5.59

Q: What about the AUC [3] of the same cell line?
A: 0.948

Q: And the pIC50 [3]?
A: < 4.99

Q: What about the AUC [4] of the same cell line?
A: 0.568

Q: And the AUC [5]?
A: 0.812

Q: What about the pIC50 [5] of the same cell line?
A: 5.82

Q: For ARH-77 (myeloma, suspension), which AUC [1, 6] is on record?
A: 0.987

Q: What about the pIC50 [1, 6] of the same cell line?
A: < 6.30

Q: What about the AUC [1, 7] of the same cell line?
A: 0.969

Q: What about the pIC50 [1, 7] of the same cell line?
A: < 5.00

Q: What about the AUC [2] of the same cell line?
A: 0.28

Q: And the pIC50 [2]?
A: 7.41

Q: What about the AUC [3] of the same cell line?
A: 0.841

Q: What about the pIC50 [3] of the same cell line?
A: 5.17

Q: And the AUC [4]?
A: 0.827

Q: What about the pIC50 [4] of the same cell line?
A: 7.24

Q: And the AUC [5]?
A: 0.969

Q: What about the pIC50 [5] of the same cell line?
A: < 5.59

Q: ASH-3 (thyroid, adherent) was tested. Which AUC [1, 6] did it give?
A: 0.955

Q: And the pIC50 [1, 6]?
A: < 6.30

Q: And the AUC [1, 7]?
A: 0.987

Q: And the pIC50 [1, 7]?
A: < 5.00

Q: What about the AUC [2] of the same cell line?
A: 0.875

Q: And the pIC50 [2]?
A: 5.60

Q: What about the AUC [3] of the same cell line?
A: 0.988

Q: And the pIC50 [3]?
A: < 4.99

Q: And the AUC [4]?
A: 0.704

Q: What about the pIC50 [4] of the same cell line?
A: 7.63

Q: What about the AUC [5] of the same cell line?
A: 0.856

Q: What about the pIC50 [5] of the same cell line?
A: 5.68

Q: Which results are given for “ATN-1 (T-cell lymphoblastic leukaemia, suspension)”?
A: AUC [1, 6]: 0.984; pIC50 [1, 6]: < 6.30; AUC [1, 7]: 0.941; pIC50 [1, 7]: < 5.00; AUC [2]: 0.295; pIC50 [2]: 7.35; AUC [3]: 0.739; pIC50 [3]: 5.54; AUC [4]: 0.171; pIC50 [4]: 9.16; AUC [5]: 0.917; pIC50 [5]: < 5.59

Q: Which results are given for AU565 (breast, adherent)?
A: AUC [1, 6]: 0.551; pIC50 [1, 6]: 7.36; AUC [1, 7]: 0.379; pIC50 [1, 7]: 6.55; AUC [2]: 0.82; pIC50 [2]: 5.77; AUC [3]: 0.948; pIC50 [3]: < 4.99; AUC [4]: 0.384; pIC50 [4]: 8.54; AUC [5]: 0.971; pIC50 [5]: < 5.59

Q: Which AUC [1, 6] does the source give for AsPC-1 (pancreas, adherent) here?
A: 0.923

Q: And the pIC50 [1, 6]?
A: < 6.30

Q: And the AUC [2]?
A: 0.701

Q: And the pIC50 [2]?
A: 6.05

Q: And the AUC [3]?
A: 0.945

Q: What about the pIC50 [3] of the same cell line?
A: < 4.99

Q: And the AUC [4]?
A: 0.613

Q: And the pIC50 [4]?
A: 7.80

Q: And the AUC [5]?
A: 0.96

Q: And the pIC50 [5]?
A: < 5.59

Q: With BB30-HNC (head and neck, adherent) as the cell line, how does the AUC [1, 6] read?
A: 0.639

Q: What about the pIC50 [1, 6] of the same cell line?
A: 7.13

Q: And the AUC [1, 7]?
A: 0.579

Q: What about the pIC50 [1, 7] of the same cell line?
A: 5.99

Q: What about the AUC [2] of the same cell line?
A: 0.351

Q: And the pIC50 [2]?
A: 7.20

Q: What about the AUC [3] of the same cell line?
A: 0.899

Q: What about the pIC50 [3] of the same cell line?
A: < 4.99

Q: And the AUC [4]?
A: 0.39

Q: What about the pIC50 [4] of the same cell line?
A: 8.50

Q: And the AUC [5]?
A: 0.913

Q: And the pIC50 [5]?
A: < 5.59

Q: With BB49-HNC (head and neck, adherent) as the cell line, how does the AUC [1, 6] read?
A: 0.973

Q: And the pIC50 [1, 6]?
A: < 6.30

Q: And the AUC [1, 7]?
A: 0.953

Q: And the pIC50 [1, 7]?
A: < 5.00

Q: What about the AUC [2] of the same cell line?
A: 0.518

Q: And the pIC50 [2]?
A: 6.74

Q: And the AUC [3]?
A: 0.977

Q: What about the pIC50 [3] of the same cell line?
A: < 4.99

Q: What about the AUC [4] of the same cell line?
A: 0.615

Q: What about the pIC50 [4] of the same cell line?
A: 7.83

Q: And the AUC [5]?
A: 0.927

Q: What about the pIC50 [5] of the same cell line?
A: < 5.59

Q: BB65-RCC (kidney, adherent) was tested. Which AUC [1, 6] did it give?
A: 0.788

Q: And the pIC50 [1, 6]?
A: 6.59

Q: And the AUC [1, 7]?
A: 0.849

Q: And the pIC50 [1, 7]?
A: 5.03

Q: What about the AUC [2] of the same cell line?
A: 0.566

Q: What about the pIC50 [2] of the same cell line?
A: 6.60

Q: What about the AUC [3] of the same cell line?
A: 0.966

Q: What about the pIC50 [3] of the same cell line?
A: < 4.99

Q: And the AUC [4]?
A: 0.688

Q: And the pIC50 [4]?
A: 7.64

Q: And the AUC [5]?
A: 0.944

Q: What about the pIC50 [5] of the same cell line?
A: < 5.59
